Results from PubChem BioAssay AID588855 (National Center for Advancing Translational Sciences (NCATS), 2011).
The campaign covered roughly 410,000 compounds. About 5,000 (1.2%) were called active. The inconclusive results got no clear call from the source; some entries with a clear call stand among them for comparison. The call rests on the fitted dose curve; in most records, active means well fitted inhibition curve with a large enough effect; inconclusive means small, poorly fitted or top-dose-only effect; inactive means no such curve, though single readings can be large or run the other way. Potencies of inconclusive entries are doubtful fits and often do not repeat.

experiment: qHTS for Inhibitors of TGF-b; conditions: HepG2 CAGA-GFP TGF-b/SMAD3 reporter, GFP fluorescence, 18 h, TGF-beta stimulated, 500 pg/mL final; series mostly up to 46.1 µM; activity, negative = inhibition: at the top concentration; further: nearly all actives have a fitted effect of over 65% in size
Procedure, shortened: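 Inhibition of TGF-beta-driven CAGA-GFP reporter expression in HEPG2 cells is measured by cellular GFP fluorescence after 18 h stimulation with 500 pg/mL recombinant TGF-beta in 1% FBS medium at 37 degrees C.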
On the % scale 0 is the no-effect control and ±100 the full control effect; potency means the concentration at half of the fitted maximal effect; tags describe the fitted curve by direction and shape.

Structure (SMILES)	Potency	activity, negative = inhibition
O=C(Nc1nc2ccc(Cl)cc2s1)[C@@H]1CCCN1C(=O)c1cccs1	inconclusive: 11.2 µM [inhibitor, partial curve, poor fit]	
O=C1CCC(/C=C/c2ccccc2)=NN1Cc1ccc(Cl)c(Cl)c1	inconclusive: 35.5 µM [inhibitor, single point]	
N#CC1=C(N)OC2=C(C(=O)CCC2)C1c1ccncc1 (stereo unspecified)	inconclusive: 20 µM [inhibitor, single point]	
CCOC(=O)CSc1c(-c2cccs2)[nH]c2ccccc12	inconclusive: 22.4 µM [inhibitor, single point]	
CCCCCCCNC1=CC(=O)CC(c2ccccc2)C1 (stereo unspecified)	inconclusive: 12.6 µM [inhibitor, partial curve, poor fit]	
Brc1ccc2[nH]c3nc(SCCN4CCOCC4)nnc3c2c1	inconclusive: 6.31 µM [inhibitor, single point]	
Cc1ccc(S(=O)(=O)N2CCN(C(=O)COC(=O)c3nc(Cl)ccc3Cl)CC2)c(C)c1		inactive: 15%
CCN1C(=O)[C@H]2[C@@H](c3ccc(C)cc3)N3C(=O)N(c4ccc(C)cc4)C(=O)[C@@]3(Cc3ccccc3)[C@H]2C1=O	inconclusive: 2.24 µM [inhibitor, partial curve, poor fit]	
O=C1C=C(N2CCCCC2)c2ccccc2C1=O	active: 2.82 µM	
O=C(COC(=O)/C=C/c1ccccc1)NNC(=O)c1ccccc1F	inconclusive: 15.8 µM [inhibitor, single point]	
CC(=O)c1ccc(N2CCN(c3ccc(NC(=O)c4cccs4)cc3C(=O)O)CC2)cc1	inconclusive: 2.24 µM [inhibitor, partial curve, poor fit]	
CC(C)C[C@H](NC(=O)c1nc[nH]c1C(=O)NCc1ccc(CNC(=O)OC(C)(C)C)cc1)C(=O)OC(C)(C)C	inconclusive: 11.2 µM [inhibitor, partial curve, poor fit]	
Cc1ccccc1-n1nnnc1SCc1ncc(-c2ccccc2)o1	inconclusive: 1.26 µM [inhibitor, partial curve, poor fit]	
Cc1ccc(-n2ncc(C(=O)NCCCN3CCCCC3)c2C2CCN(C(=O)OC(C)(C)C)CC2)c(C)c1	inconclusive: 35.5 µM [inhibitor, single point]	
COCCN=C1NN=C(c2cc(C)n(CC3CCCO3)c2C)CS1 (stereo unspecified)		inactive: 16.1%
Cc1ccc2c(c1)C(=O)C(=O)N2Cc1ccc(F)cc1	inconclusive: 17.8 µM [inhibitor, single point]	
O=C(CN1CCN(CC(=O)Nc2ccc(OCc3ccccc3)cc2)CC1)Nc1ccc(F)cc1	inconclusive: 17.8 µM [inhibitor, single point]	
Cc1oc2cc3c(C(=O)N4CCCCC4)c(C)oc3cc2c1C(=O)N1CCCCC1		inactive: 15.8%
Cc1ccc(-n2c(C)cc(C(=O)COc3c(CO)cc(F)cc3CO)c2C)cc1C	inconclusive: 20 µM [inhibitor, single point]	
Cc1ccc(C2c3c(-c4cc(C)ccc4O)n[nH]c3C(=O)N2Cc2ccco2)cc1 (stereo unspecified)	inconclusive: 15.8 µM [inhibitor, single point]	
C=CCNC(=O)[C@@H]1CSC2c3ccc(OC)c(OC)c3C(=O)N21 (stereo partly specified)		inactive: 2.39%
OC(c1ccccc1)(c1nc(-c2cc(F)cc(F)c2)cs1)C(F)(F)F (stereo unspecified)	inconclusive: 35.5 µM [inhibitor, single point]	

Structure (SMILES)	Potency	activity, negative = inhibition
CC(C)CN1CCC(=O)N(CCSc2ccc(Br)cc2)CC1	inconclusive: 4.47 µM [inhibitor, single point]	
COc1ccc(NC(=O)c2nc[nH]c2C(=O)N[C@@H](CC(C)C)C(=O)OC(C)(C)C)cc1	inconclusive: 8.91 µM [inhibitor, partial curve, poor fit]	
Oc1ccc(Nc2nc3ccccc3n3cnnc23)cc1		inactive: -17.2%
CCN(CC)C(=O)Cn1cc(SCC(=O)Nc2cccc(F)c2)c2ccccc21		inactive: 0.0084%
CCOC(=O)CNC(=O)CSc1nnc(Cn2c(=O)sc3ccccc32)n1-c1ccccc1C	inconclusive: 2 µM [inhibitor, full curve]	
CCOc1ccc(S(=O)(=O)/N=C(\N)c2ccccc2)cc1		inactive: 2.98%
S=C(NCCc1ccccc1)N/N=C/c1c(Cl)cccc1Cl	inconclusive: 0.1 µM [inhibitor, full curve, poor fit]	
O=C(c1ccc2c3n(nc2c1)-c1ccccc1CO3)N1CCCCC1		inactive: -11.1%
O=C(NCCCN1CCOCC1)c1ccc2c(c1)N(Cc1ccc(Cl)cc1)C(=O)c1ccccc1S2=O (stereo unspecified)	inconclusive: 6.31 µM [inhibitor, single point]	
CC(C)(C)C(=O)Nc1nnc(-c2ccccc2)c(-c2ccccc2)n1		inactive: 0.409%
Cc1ccc(S(=O)(=O)c2cnc(SCC(=O)Nc3cccc(Cl)c3)nc2N)cc1C	inconclusive: 12.6 µM [inhibitor, partial curve, poor fit]	
O=S(=O)(Nc1nccs1)c1ccc(NCc2cc(Br)cc(Br)c2O)cc1	inconclusive: 15.8 µM [inhibitor, single point]	
CCOC(=O)c1cc(-c2ccc(C)cc2)n(CCC(=O)Nc2nc3c(C)cccc3s2)c1C	inconclusive: 12.6 µM [inhibitor, partial curve, poor fit]	
CCC(CC)C1=NN2C(=N)/C(=C\c3cc(C)n(-c4cccc(C)c4)c3C)C(=O)N=C2S1	inconclusive: 1.26 µM [inhibitor, partial curve, poor fit]	
Cc1ccc2c(c1)c(=O)c1ccccc1n2CCCC(=O)Nc1ccc(C)c(F)c1	active: 6.31 µM	
CN1C(=O)/C(=C/c2ccc(OCc3cccc(F)c3)cc2)NC1=S		inactive: 5.79%
Cc1cc(C)nc(SCC(=O)Nc2ccc(Br)cn2)n1		inactive: 9.8%
COc1cc(N(C(=O)Cc2cccs2)C(C(=O)NC2CCCCC2)c2ccc(C)cc2)ccc1-n1cnnn1 (stereo unspecified)		inactive: 2.75%
Cc1ccc(C)n1NC(=O)c1cccs1	inconclusive: 22.4 µM [inhibitor, partial curve, poor fit]	
COC(=O)[C@@H]1OC(=O)[C@H]2O[C@@]23[C@@]1(C)CC[C@@H]1[C@@]2(C)C=CC(=O)OC(C)(C)[C@@H]2CC(=O)[C@]13C	inconclusive: 5.62 µM [inhibitor, single point]	
S=C(NCCc1ccccc1)Nc1ncccn1		inactive: 12.6%
Cc1cc2c(cc1S(=O)(=O)NCCc1ccccc1)NC(=O)CO2		inactive: 2.16%

Structure (SMILES)	Potency	activity, negative = inhibition
CN(C)C(=O)c1cccc(-c2cc(NC=O)c3ncc(-c4ccc(F)cc4)n3c2)c1	active: 8.91 µM	
Cc1occc1C(=O)N1CCCC(N2CCN(c3cccc(Cl)c3)CC2)C1 (stereo unspecified)		inactive: -17.9%
CC(C)(C)c1ccc(C(=O)NCCOc2ccccc2)cc1		inactive: -1.62%
CCN(CC)C(=S)SCC(=O)Nc1nc(-c2ccccc2)c(-c2ccccc2)o1	inconclusive: 35.5 µM [inhibitor, single point]	
COc1ccccc1N1CCN(C(=O)C2CCN(S(=O)(=O)c3c(C)noc3/C=C/c3ccc(C)cc3)CC2)CC1	inconclusive: 8.91 µM [inhibitor, partial curve]	
COc1cccc(Cn2c(=O)n(CC3CCC(C(=O)N4CCCCC4)CC3)c(=O)c3sccc32)c1 (stereo unspecified)	inconclusive: 35.5 µM [inhibitor, single point]	
CCOc1ccc(CCNC(=O)c2sc3nc4n(c(=O)c3c2C)CCC4)cc1OCC	inconclusive: 14.1 µM [inhibitor, single point]	
Cc1cccc(Cc2cnc(NC(=O)C3Cc4ccc(C)cc4C(=O)O3)s2)c1 (stereo unspecified)	inconclusive: 15.8 µM [inhibitor, single point]	
CCC(=O)Nc1ccc(-c2nnc(SCc3ccc(C(=O)Nc4nccs4)cc3)n2CC)cc1	inconclusive: 2.82 µM [inhibitor, partial curve]	
CCN(CC)CCN(C(=O)CCS(=O)(=O)c1ccccc1)c1nc2cc(OC)c(OC)cc2s1	inconclusive: 22.4 µM [inhibitor, single point]	
COc1ccc(C(=O)NCc2nnc(SCC(=O)Nc3cc(Cl)ccc3OC)o2)cc1	inconclusive: 2.51 µM [inhibitor, partial curve, poor fit]	
COc1ccc(Cn2c(C(=O)O)c(CNCC(C)c3ccccc3)c3ccc(OC)cc32)cc1 (stereo unspecified)		inactive: -37.8%
COc1ccc(C(=O)C[n+]2ccc3c(c2)nc(-c2ccccc2)n3C)cc1		inactive: 6.59%
Cc1ccc(C)c(N2CCN(C(=O)Nc3cn(CC(C)C)c(=O)c4ccccc34)CC2)c1	inconclusive: 14.1 µM [inhibitor, partial curve, poor fit]	
Cc1ccc(C(=O)CC(=O)COc2ccc(Cl)cc2)cc1		inactive: 0%
COc1cc(C(=O)NCCCN(C)C)ccc1OCC(=O)Nc1cccc(C(F)(F)F)c1		inactive: -5.49%
COc1ccc(-c2cc(-c3ccc(N)cc3)nc(N)c2C#N)cc1OC	inconclusive: 17.8 µM [inhibitor, single point]	
O=C1C=C(c2ccccc2C(F)(F)F)C[C@@H](c2ccc3c(c2)OCO3)C1	inconclusive: 12.6 µM [inhibitor, partial curve]	
C=CCNC(=S)N/N=C(\C)c1cc(OC)c(OC)c(OC)c1	inconclusive: 11.2 µM [inhibitor, partial curve]	
CC(C)(C)OC(=O)NC(Cc1ccccc1)C(O)c1ccco1 (stereo unspecified)	inconclusive: 35.5 µM [inhibitor, single point]	
Fc1cccc(CCN2CCNC[C@@H]2Cc2ccccc2)c1		inactive: -3.22%
COc1cccc(CCNC(=O)Cn2c(-c3cccs3)cc3ccccc32)c1	inconclusive: 20 µM [inhibitor, single point]	
